# Test results: PubChem BioAssay AID1508642 (National Center for Advancing Translational Sciences (NCATS), 2021)
# Out of some 43,000 compounds screened, about 200 (0.47%) were called active. Inconclusive results (about 12%) are left out. Calls come from the whole dose curve; as a rule, active = well fitted cell-killing curve with a large enough effect; inconclusive = small, poorly fitted or top-dose-only effect, or effect the other way; inactive = flat fitted curve, though single readings scatter. The list shows a part of the results.
# Assay: Cell viability qHTS assay in S16 Pmp22-F2sN cells; note: nearly all actives have a fitted effect of over 65% in size
# Settings: S16 Pmp22-F2sN Schwann cells (luciferase reporters placed in the Pmp22 gene) viability, CellTiter-Glo, 24 h; series mostly up to 57.5 µM; activity change, negative = cytotoxicity: at the top concentration
# How it was run: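 CellTiter-Glo counter-screen, qHTS, 1536-well. Cells: S16(c9) Pmp22-F2sN, 500-1,000/well in DMEM + 10% FBS. Cpd 23 nL pin transfer, 24 h, 37C/5% CO2. Read: luminescence, CCD imager.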
# % is set by controls: 0 for no effect and ±100 for the full control effect.
row,SMILES,"activity change, negative = cytotoxicity"
1,Cc1ccc(NC(=O)CCSCCc2ccccn2)cc1,inactive: 1.04%
2,CCc1ccc(-n2c(C)nnc2SCc2nc(-c3ccc(OC)cc3)no2)cc1,inactive: -19.9%
3,O=C(Nc1ccc(Cl)cc1Cl)c1cc(S(=O)(=O)N2CCN(c3ccccc3F)CC2)ccc1F,inactive: -21.4%
4,CCCCN(C)CCNC(=O)c1cc(-c2cccnc2)nc2ccc(S(=O)(=O)N3CCC(C)CC3)cc12,inactive: -23.6%
5,Cc1ccn2c(c1)nc(=O)c1cc(S(=O)(=O)N3CCC(C)CC3)c(Cl)cc12,inactive: 15.6%
6,CN(Cc1ccccc1)c1nc(-c2ccc(F)cc2)cc(C(F)(F)F)n1,inactive: -5.31%
7,O=C(COc1ccccc1F)Nc1ccc(C(=O)OCc2cc(=O)n3nc(C4CC4)sc3n2)cc1,inactive: 2.66%
8,CCC(Oc1ccccc1F)C(=O)Nc1c(C(=O)c2ccccc2)oc2ccccc12 (stereo not given),inactive: 2.5%
9,O=C(Nc1ccc(Cl)cc1)C1CCN(c2nc3ccccc3n3cccc23)CC1,inactive: 5.56%
10,CC(C)(C)OC(=O)N1CCC(c2c(C(=O)NCc3ccc4c(c3)OCO4)cnn2-c2ccc(F)cc2F)CC1,inactive: -19.2%
11,CCC(C(=O)Nc1cccc(-c2cn3cccnc3n2)c1)c1ccccc1 (stereo not given),inactive: 4.34%
12,Cc1cccc(N2CCN(c3ncnc4onc(-c5ccc(F)cc5)c34)CC2C)c1 (stereo not given),inactive: -5.12%
13,Cc1ccc2c(=O)cc(C(=O)Nc3ccc(S(=O)(=O)N4CCCCC4)cc3)oc2c1C,inactive: -1.74%
14,COc1ccccc1Cc1nc2ccccc2nc1SCC(=O)NCc1ccc(F)cc1,inactive: 5.19%
15,COc1ccccc1Nc1nc2c(S(=O)(=O)c3ccc(C(C)C)cc3)nnn2c2ccsc12,inactive: -0.492%
16,Cc1coc2cc3oc(=O)c(CC(=O)NCCc4ccccc4F)c(C)c3cc12,inactive: 19.5%
17,O=C(Cn1c(=O)n(Cc2ccc(C(=O)NCc3ccccc3Cl)cc2)c(=O)c2ccccc21)Nc1ccc(F)cc1,inactive: 11.9%
18,CC(C)(C)C(=O)Nc1ccc(Cl)c(-c2nc3ccccc3[nH]2)c1,inactive: 15.4%
19,Cc1c(-c2ccccc2)n(-c2ccc(Cl)cc2)c2nc3c(c(=O)n(C)c(=O)n3C)n12,inactive: 12.2%
20,Cc1cc(C)c2oc(-c3ccc(NC(=O)c4cc(Br)ccc4Cl)cc3)nc2c1,inactive: 4.41%

row,SMILES,"activity change, negative = cytotoxicity"
1,Cc1ccc(NC(=O)CCc2nc3cccnc3n2-c2ccccc2)cc1,inactive: -0.224%
2,Cc1ccc(CNc2ccc(-c3nc(-c4cccnc4)no3)cc2[N+](=O)[O-])cc1,inactive: 12.4%
3,CCN(CC)S(=O)(=O)c1ccc2c(c1)N(CC(=O)Nc1ccc(F)cc1F)C(=O)C1CCCN21 (stereo not given),inactive: -11.4%
4,COc1ccc(CNC(=O)CCCCCn2c(=O)[nH]c3ccccc3c2=O)cc1,inactive: 4.57%
5,Oc1cccc(-c2nc3ncccn3c2Nc2cccc(C(F)(F)F)c2)c1,inactive: -26.3%
6,CCOC(=O)c1[nH]c2ccccc2c1NC(=O)c1ccc(OC)c(OC)c1,inactive: -1.92%
7,COc1cc(NC(=O)Cn2c(C)cc(C)c(C#N)c2=O)cc(OC)c1,inactive: 4.79%
8,CCn1cc(C(=O)NCCc2ccc(Cl)cc2)c(=O)c2cc(S(=O)(=O)N3CCOCC3)ccc21,inactive: 1.85%
9,Cc1ccc(C)c(NC(=O)c2cc(S(=O)(=O)N3CCc4ccccc4C3)ccc2F)c1,inactive: 8.39%
10,COc1ccccc1CNC(=O)c1cc2sccc2n1Cc1ccc(F)cc1,inactive: -8.81%
11,COc1ccc(Br)cc1CNC(=O)CCCn1c(=O)c2cccn2c2cccnc21,inactive: -14.1%
12,CCc1cccc(NC(=O)Cn2c(C(=O)OC)cc3occc32)c1,inactive: 4.94%
13,COc1ccccc1NC(=O)Cn1c(=O)n(-c2ccccc2Cl)c(=O)c2sc3ccccc3c21,inactive: 8.11%
14,COc1ccc(-c2noc(-c3ccccc3OCC(=O)Nc3ccc(C(C)=O)cc3)n2)cc1,inactive: 18.7%
15,CCOc1ccc(NC(=O)c2cccc(N3CCCS3(=O)=O)c2)cc1,inactive: 9.63%
16,Cc1ccc(C)c(N2CCN(C(=O)CN3C(=O)COc4ccc(S(=O)(=O)N5CCOCC5)cc43)CC2)c1,inactive: 4.84%
17,COC(=O)c1cc2sccc2n1Cc1ccc(F)cc1,inactive: 5.92%
18,CCCCC(=O)Nc1nnc(S(=O)(=O)N2CCCCCC2)s1,inactive: -7.54%
19,O=C(Nc1ccc(F)c(Cl)c1)C1CCCN(c2ncnc3onc(-c4ccc(F)cc4)c23)C1 (stereo not given),inactive: -25.5%
20,CCC(=O)N1c2ccccc2CC1C(=O)NCCCN1CCN(c2ccccc2)CC1 (stereo not given),inactive: 18.3%

row,SMILES,"activity change, negative = cytotoxicity"
1,CCOc1ccc(CCNC(=O)c2cc3cc4ccc(OC)cc4nc3s2)cc1OCC,inactive: 4.89%
2,Cc1ccccc1OCC(=O)Nc1ccc(S(=O)(=O)Nc2ncccn2)cc1,inactive: -18.3%
3,Cc1ccc(-n2nc(C)c3c(C)c(CCC(=O)NCc4cccc(Cl)c4)c(C)nc32)cc1C,inactive: 3.8%
4,COc1ccc(CCNC(=O)C(C)n2nc(C)c3sc4ccccc4c3c2=O)cc1OC (stereo not given),inactive: 4.73%
5,CCOc1ccc(C2C(C(=O)Nc3ccc(C)cc3C)=C(C)Nc3c(C(=O)Nc4ccc(C)cc4)cnn32)cc1OC (stereo not given),inactive: -5.06%
6,CCC12CN3CC(C)(CN(C1)C3c1c(C)[nH]c3ccccc13)C2=O (stereo not given),inactive: 3.12%
7,COc1ccc(-c2nc(C)c(CCNC(=O)c3cccc(C)c3)s2)cc1OC,inactive: 14%
8,COc1ccc(C2NC(=O)N(C)C3=C2C(=O)N(c2ccccc2)C3)cc1 (stereo not given),inactive: -3.32%
9,COc1ccc(C(=O)Oc2c(Sc3ccc(C)cc3)c(C)nn2C(C)(C)C)c(OC)c1,inactive: -27.9%
10,COCCNC(=O)C(=O)Nc1ccc2nc3n(c(=O)c2c1)CCCCC3,inactive: -2.29%
11,C=Cc1ccc(Cn2c(C(=O)O)c(CNCc3cc(OC)ccc3OC)c3ccc(C)cc32)cc1,inactive: -27.6%
12,Cc1c(C(=O)N2CCOCC2)oc2c1-c1nn(CC(=O)NCc3ccccc3)cc1CC2,inactive: 1.49%
13,CSc1ccc(Nc2nn(-c3ccc(OC(F)(F)F)cc3)nc2C(C)=O)cc1,inactive: -2.96%
14,Cn1c(=O)n(C)c2cc(CNCc3ccc(C(=O)O)cc3)ccc21,inactive: 6.73%
15,COC(=O)C1=C(c2ccccc2)c2ccccc2S(=O)(=O)N1CC(=O)Nc1cc(C)ccc1C,inactive: 4.8%
16,Cc1ccc(CN2C(=O)C3(SCC(=O)N3c3ccc(C)c(C)c3)c3ccccc32)cc1 (stereo not given),inactive: -0.76%
17,CCOC(=O)c1cccc(NC(=O)CCc2c(C)nc3c4cccnc4nn3c2C)c1,inactive: 0.293%
18,CCOC(=O)Cn1nc(N2CCN(c3ccc(F)cc3)CC2)ccc1=O,inactive: 2.64%
19,Cc1cccc(N2CCN(c3c(CN4CCCC4)c(=O)oc4ccccc34)CC2)c1C,inactive: -1.53%
20,Cc1ccc2c(c1)N(CC(=O)NCc1cccc(Cl)c1)C(=O)c1cccnc1O2,inactive: 8.73%
